{"source": "PubChem BioAssay (NCATS)", "key": {"[1]": {"assay": "P-glycoprotein substrates identified in KB-8-5-11 adenocarcinoma cell line, qHTS therapeutic library screen (AID 1346987); note: nearly all actives have a fitted effect of over 65% in size", "outline": "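Compounds are pinned in dose-response onto KB-8-5-11 cells (500 cells/well, colchicine-free medium) and left 72 h at 37 degree C. CellTiter-Glo luminescence then yields AC50 values.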"}, "[2]": {"assay": "P-glycoprotein substrates identified in KB-3-1 adenocarcinoma cell line, qHTS therapeutic library screen (AID 1346986);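 note: potency is for cytotoxicity meaning loss of cell viability; nearly all actives have a fitted effect of over 60% in size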", "outline": "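In 1536-well format, 500 cells/well received pinned compound titrations and were incubated 72 h, 5% CO2. Viability was read by CellTiter-Glo; cytotoxic if AC50 < 10 uM and efficacy >50%.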"}, "[3]": {"assay": "NS1 protein of Zika virus - qHTS assay to identify small molecule inhibitors in human HEK 293 cells (AID 1347053); note: nearly all actives have a fitted effect of over 55% in size", "outline": "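Compound-treated (1 h pre-infection) HEK 293 cells infected with ZIKV MR766, MOI = 0.5; after 24 h at 37 C, NS1 read by TR-FRET; data normalized to uninfected and infected controls.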"}, "[4]": {"assay": "qHTS of pediatric cancer cell lines to identify multiple opportunities for drug repurposing: Primary screen for TC32 cells (AID 1347089); note: nearly all actives have a fitted effect of over 60% in size", "outline": "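TC32 cells, 500-1,000/well in growth medium, compound-treated 48 h at 37 °C; viability from CellTiter-Glo luminescence. Primary screen: MIPE 11-point (0.78 nM–46 µM final), NPC 8-point (0.59 nM–46 µM final); confirmatory at 11-point dilutions.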"}}, "note": "Where “and” joins values, the source holds several entries; their conditions need not be identical. Equal entries are not always repeated. The inconclusive results got no clear call from the source; some entries with a clear call stand among them for comparison. Potencies beside an inconclusive call are fits to weak or partial responses and may not hold up. A structure can be active in one record and inactive in another. Calls of active or inactive are those of the source. Calls come from the whole dose curve; as a rule, active = well fitted curve in the direction sought with a large enough effect; inconclusive = small, poorly fitted or top-dose-only effect, or another doubt; inactive = no such curve, though single readings can be large; an effect the other way counts as inactive or inconclusive. Potency is the fitted concentration of half-maximal effect; tags give direction and shape of the fitted curve."}
{"smiles": "COc1cc(N2CCN(C)CC2)ccc1Nc1nc(N)c(C(=O)c2c(Cl)cccc2Cl)s1", "values": [{"measurement": "Potency", "setting": "[1]", "value": "inconclusive: 37.2 µM [inhibitor, single point]"}]}
{"smiles": "CS(=O)(=O)Nc1ccc([N+](=O)[O-])cc1Oc1ccccc1", "values": [{"measurement": "Potency", "setting": "[1]", "value": "inconclusive: 37.2 µM [inhibitor, partial curve, poor fit]"}]}
{"smiles": "CC(C)[C@H](CO)Nc1nc(Nc2cccc(Cl)c2)c2ncn(C(C)C)c2n1", "values": [{"measurement": "Potency", "setting": "[2]", "value": "inconclusive: 29.1 µM [inhibitor, single point]"}, {"measurement": "Potency", "setting": "[3]", "value": "active: 23.5 µM"}, {"measurement": "Potency", "setting": "[4]", "value": "inconclusive: 6.58 µM [cytotoxic, partial curve, poor fit]"}]}
{"smiles": "Cc1[nH]c(C=C2C(=O)Nc3ccc(S(=O)(=O)N(C)c4cccc(Cl)c4)cc32)c(C)c1C(=O)N1CCN(C)CC1", "values": [{"measurement": "Potency", "setting": "[1]", "value": "inconclusive: 11.8 µM [inhibitor, full curve]"}]}
{"smiles": "CC(=O)O[C@@]12CO[C@H]1C[C@H](O)[C@@]1(C)C(=O)[C@H](O)C3=C(C)[C@@H](OC(=O)C(O)[C@@H](NC(=O)OC(C)(C)C)c4ccccc4)C[C@@](O)([C@@H](OC(=O)c4ccccc4)[C@@H]21)C3(C)C", "note": "(stereo not given in full)", "values": [{"measurement": "Potency", "setting": "[1]", "value": "active: 0.0166 µM"}, {"measurement": "Potency", "setting": "[3]", "value": "inconclusive: 0.001 µM [inhibitor]"}]}
{"smiles": "O=C(Nc1ncc(SCCN2CCCC2)s1)[C@]1(c2ccc(S(=O)(=O)C3CC3)cc2)C[C@@H]1C1CCCCC1", "values": [{"measurement": "Potency", "setting": "[1]", "value": "inconclusive: 29.6 µM [inhibitor, single point]"}, {"measurement": "Potency", "setting": "[3]", "value": "inconclusive: 37.2 µM [inhibitor, single point]"}]}
{"smiles": "CCOC(=O)[C@H](CCc1ccccc1)N[C@H]1CCc2ccccc2N(CC(=O)O)C1=O", "values": [{"measurement": "Potency", "setting": "[1]", "value": "active: 23.5 µM"}, {"measurement": "Potency", "setting": "[3]", "value": "inactive and inconclusive: 37.2 µM [inhibitor, single point]"}]}
{"smiles": "NCC(=O)Nc1ccc(-n2nc(C(F)(F)F)cc2-c2ccc3c(ccc4ccccc43)c2)cc1", "values": [{"measurement": "Potency", "setting": "[1]", "value": "active: 14.8 µM and active: 10.3 µM"}, {"measurement": "Potency", "setting": "[3]", "value": "active: 0.0526 µM"}]}
{"smiles": "Cc1cn([C@H]2C[C@H](N=[N+]=[N-])[C@@H](CO)O2)c(=O)[nH]c1=O", "values": [{"measurement": "Potency", "setting": "[1]", "value": "inconclusive: 29.1 µM [inhibitor, single point]"}]}
